From PubChem BioAssay AID686978 (National Center for Advancing Translational Sciences (NCATS), 2013)
Screen size: about 420,000 compounds; about 64,000 (15%) were called active. Inconclusive results, whose numbers are uncertain, are shown with a selection of clear calls. The call rests on the fitted dose curve; in most records, active means well fitted inhibition curve with a large enough effect; inconclusive means small, poorly fitted or top-dose-only effect; inactive means flat fitted curve, though single readings scatter. No potency is given beside an inconclusive call; the fits are too rough.

experiment: qHTS for Inhibitors of human tyrosyl-DNA phosphodiesterase 1 (TDP1): qHTS in cells in absence of CPT; conditions: DT40 Tdp1-/- hTDP1 cells, no CPT, ATP luminescence, 48 h; activity change, negative = growth inhibition: at 46.2 µM (top of the series) unless noted; further: nearly all actives have a fitted effect of over 55% in size
In short: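 Stably hTDP1-transfected Tdp1-null chicken DT40 cells were treated with library compounds minus camptothecin and grown for at least 48 hr at 37 °C, after which cellular ATP was quantified by luminescence.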
On the % scale 0 is the no-effect control and ±100 the full control effect; potency means the concentration at half of the fitted maximal effect; tags describe the fitted curve by direction and shape.

Compound	Potency	activity change, negative = growth inhibition
COc1cc(NC(=O)CSc2cc(C)c3cc(C)cc(C)c3n2)c(C(=O)O)cc1OC	inactive	
CCCCNS(=O)(=O)c1ccc2nc(-c3cccnc3)cc(C(=O)NCC(OC)OC)c2c1	inactive	
COc1ccc(-c2noc(CN(C)CCC3CCCCO3)n2)cc1 (stereo unspecified)	inconclusive [inhibitor, single point]	
COC(=O)[C@@]1(Cc2ccccc2)[C@H]2C(=O)N(Cc3ccccc3)C(=O)[C@H]2[C@H]2CN=C(SCC3CC3)N21	active: 23.1 µM	
CCN(CC(=O)Nc1ccc(NC(C)=O)cc1)C(=O)/C=C/c1ccc2c(c1)OCO2	inactive	
C[C@@H]1C(c2ccccc2)=NN(c2ccc(Br)cc2)[C@H]1C(=O)N1CCOC1=O	inconclusive [inhibitor, single point]	
CCOC(=O)N1CCC(NC(=O)c2ccc3c(c2)N=C(C)c2c(C)ccc(C)c2S3)CC1	active: 1.16 µM	
O=C(NC(=S)Nc1cccc(Cl)c1N1CCCC1)c1ccc(-c2cccc([N+](=O)[O-])c2)o1	inconclusive [inhibitor, partial curve]	
CC1(C(=O)Nc2ccc3c(c2)OCCO3)CCN1C(=O)CC1CCCC1 (stereo unspecified)	inconclusive [inhibitor, single point]	
Cc1ccc(COc2ccc(Br)cc2/C=N/O)cc1	inconclusive [inhibitor, partial curve]	
COC(=O)c1ccc(CNC(=O)c2ccccc2C(=O)NCC2(CBr)OCCO2)cc1	inactive	
CCOc1ccc(-c2n[nH]c(C)c2-c2ccccn2)c(O)c1	inconclusive [inhibitor, single point]	
O=C(CSc1nnc(CNC(=O)c2ccc(F)cc2)o1)Nc1ccc2c(c1)OCCO2	inactive	
COc1ccc(OC)c(CN2CCN(C(=O)c3cccc(S(=O)(=O)Nc4ccc(F)cc4)c3)CC2)c1	inconclusive [inhibitor, single point]	
CC(=O)Oc1ccc(Cn2c(C)c(C(=O)NCc3ccc(C#N)cc3)sc2=O)cc1	inconclusive [inhibitor, single point]	
COC(=O)COc1cccc(NC(=O)c2ccc(Cl)cc2)c1	inconclusive [inhibitor, single point]	
COc1ccc(CN2CCN(Cc3cccc(OC)c3)C(CCO)C2)cc1 (stereo unspecified)	inconclusive [inhibitor, single point]	
O=C(OCC(=O)N1CCCC1)c1c2c(nc3ccccc13)CCCCC2	inconclusive [inhibitor, single point]	
Cc1cc(C)n2cc(CSc3nnnn3-c3ccccc3C)nc2n1	inconclusive [inhibitor, single point]	
O=C(CCCn1c(=S)[nH]c2cc3c(cc2c1=O)OCO3)N1CCN(c2ncccn2)CC1	inconclusive [inhibitor, partial curve]	
Cc1ccc(CC(=O)Nc2ccc(Cl)cn2)cc1	inactive	
O=C(O)C1CCN(c2ccc(S(=O)(=O)N3CCOCC3)cc2[N+](=O)[O-])CC1	inactive	
Cc1ccc(S(=O)(=O)N=N/C=C2\C=CC=CN2O)cc1	inconclusive [inhibitor, single point]	
COc1cccc(NC(=O)CN(C)S(=O)(=O)c2ccc3nc(C)sc3c2)c1	inactive	

Compound	Potency	activity change, negative = growth inhibition
C=CCn1c(=O)/c(=C/c2ccsc2)s/c1=C(\C#N)C(=O)NCCN1CCOCC1	inconclusive [inhibitor, full curve, poor fit]	
COc1ccc(NC(=O)/C(C#N)=C/C=C/c2ccco2)cc1	active: 9.2 µM	
CC1CCN(c2ccccc2NC(=S)NC(=O)c2cccs2)CC1	inconclusive [inhibitor, single point]	
CCN(C(=O)CSc1nnc(CNc2cccc(OC)c2)n1C1CCCCC1)C1CCS(=O)(=O)C1 (stereo unspecified)		inconclusive: -27% [inhibitor]
CCCNC(=O)C1(C)CCN(Cc2ccc(C(=O)OCC)cc2)C1 (stereo unspecified)	active: 16.4 µM	
COc1ccccc1/C=C/C=N/n1c(-c2cc(-c3ccccc3)n[nH]2)n[nH]c1=S	inconclusive [inhibitor, single point]	
O=C(COC(=O)c1ccccc1O)Nc1cccc(S(=O)(=O)N2CCCC2)c1	inactive	
CN(c1ccc(Cl)cc1)S(=O)(=O)c1nnc(NC(=O)C2CCCCC2)s1	inactive	
O=C(O)c1cc(Cl)c2c(c1)OCO2	inactive	
Cc1nc(C(=O)NCCC(C)C)sc1C1(C)CC(c2ccccc2)=NO1 (stereo unspecified)	inactive	
O=C1/C(=C/c2ccc3c(c2)OCO3)CCC/C1=C\c1ccc2c(c1)OCO2	inactive	
O=C1/C(=C\c2ccco2)CCC/C1=C\c1ccco1	inconclusive [inhibitor, single point]	
CCC(=O)c1ccc(OCC(=O)Nc2ccccc2N2CCOCC2)cc1	inconclusive [inhibitor, single point]	
O=C(CNC(=O)c1ccc(Cl)cc1Cl)OCc1cn2cc(Br)ccc2n1	inactive	
O=C(Nc1cc([N+](=O)[O-])ccc1Cl)C(Sc1ccccc1)c1ccccc1 (stereo unspecified)	inconclusive [inhibitor, single point]	
CCCCCCCCN1C(=O)[C@H](CC(=O)N2CCN(C(=O)OCC)CC2)C[C@@]2(C(=O)OCC)CCCC=C12	inconclusive [inhibitor, single point]	
CC(C)CSCC1OC(n2cnc3c(N)nccc32)C(O)C1O (stereo unspecified)	active: 20.6 µM	
CC1Sc2ccc(S(=O)(=O)N3CCC(C(=O)N(C)Cc4ccco4)CC3)cc2NC1=O (stereo unspecified)	inconclusive [inhibitor, partial curve, poor fit]	
O=C(O)c1ccc(NC(=O)c2cn(-c3ccccc3)nc2-c2cccc(Cl)c2)cc1	active: 3.66 µM	
COc1cc(C(=O)Oc2c(Sc3ccc(C)cc3)c(C)nn2-c2ccccc2)cc(OC)c1OC	inactive	
Cc1ccc(-c2ccc(CN3C(C)C(=O)N(Cc4cn(Cc5ccco5)nn4)CCS3(=O)=O)cc2)cc1 (stereo unspecified)	inconclusive [inhibitor, single point]	
CCN(CC)S(=O)(=O)c1ccc(N2CCOCC2)c(NC(=O)c2cccc(C#N)c2)c1	inactive	
S=c1[nH]nc(-c2ccncc2)n1/N=C/c1cn(-c2ccccc2)nc1-c1ccccc1	inconclusive [inhibitor, single point]	
CCOc1ccc(CCNC(=O)c2nn(C)c3c2CS(=O)(=O)c2ccccc2-3)cc1	active: 3.66 µM	

Compound	Potency	activity change, negative = growth inhibition
CN(Cc1cccnc1)Cc1cn(Cc2ccccc2)nc1-c1ccc2c(c1)OCO2	inconclusive [inhibitor, single point]	
CN(C)c1c2ccccc2nc2c(F)c(F)c(F)c(F)c12	active: 20.6 µM	
O=C(Nc1cccc(-c2cc3ccccc3oc2=O)c1)c1ccc(Br)o1	inconclusive [inhibitor, partial curve]	
c1ccc(CCc2ccccn2)cc1	inactive	
COc1ccc(OCC(N)=O)cc1	inactive	
CC1(C(=O)Nc2ccc(Cl)c(Cl)c2)CCN1C(=O)CC1CCCC1 (stereo unspecified)	inconclusive [inhibitor, single point]	
CCC(C)NC(=O)c1cnn(-c2ccc(Cl)cc2)c1C1CCN(C(=O)OC(C)(C)C)CC1 (stereo unspecified)	inconclusive [inhibitor, single point]	
C=CCCC(=O)Nc1nc(C)c(-c2csc(Nc3ccc(Cl)cc3Cl)n2)s1	active: 14.6 µM	
COc1cccc(NC(=O)CN2C(=O)NC(C)(c3ccc(C)cc3)C2=O)c1 (stereo unspecified)	inactive	
COc1ccc(-c2csc(NC(=S)NC(=O)c3ccccc3)n2)cc1Br	inconclusive [inhibitor, single point]	
CCOc1ccc(NS(=O)(=O)c2ccc(C(=O)NCC3CCCO3)cc2)cc1 (stereo unspecified)	inconclusive [inhibitor, single point]	
COc1ccc(C(=O)NC(C)c2csc(C)n2)cc1OC1CCN(C(C)=O)CC1 (stereo unspecified)	inactive	
CC1=C(C)CC2C(=O)N(c3cccc4ccccc34)C(=O)C2C1 (stereo unspecified)	inconclusive [inhibitor, single point]	
Cc1ccc([N+](=O)[O-])cc1NC(=O)Nc1cccc(F)c1	active: 9.2 µM	
O=C(C1CC(=O)N(c2ccc3c(c2)OCCO3)C1)N1CCN(S(=O)(=O)c2cccc(F)c2)CC1 (stereo unspecified)		inconclusive: -37.9% [inhibitor]
COc1ccc(CNC(=O)CN2C(=O)C(c3ccccc3)Oc3cccnc32)cc1 (stereo unspecified)	inconclusive [inhibitor, single point]	
CC(C)c1ccc(OCC(=O)NCc2n[nH]c(=O)c3ccccc23)cc1	inconclusive [inhibitor, partial curve]	
Cc1ccn2c(Nc3ccc4c(c3)OCCO4)c(-c3ccc(Cl)s3)nc2c1	inactive	
COc1ccccc1-c1oc2ccccc2c1C#CC1(O)CCCCC1	inconclusive [inhibitor, single point]	
CN(C1CCCCC1)S(=O)(=O)c1ccc2c(c1)c(=O)c(C(=O)NCCc1ccccc1)cn2C	inconclusive [inhibitor, partial curve, poor fit]	
CCOc1ccc(CCNC(=O)C2CCCN(c3ncnc4c3nc3n4CCCCC3)C2)cc1 (stereo unspecified)	active: 23.1 µM	
Cc1cccc(NC(=O)C2CCCN(S(=O)(=O)c3cnc[nH]3)C2)c1C (stereo unspecified)	inactive	
CC(=O)Nc1ccc(S(=O)(=O)NCCC(=O)OCc2nc(N)nc(Nc3ccccc3C)n2)cc1	inactive	
